From the supplement of paper PMC12217912
The other results are listed elsewhere or left out. Sequences were assembled here from the parent chain. Inactive controls read about 0.05.

B1: TEV protease; numbered along this chain (parent)
chain: MGESLFKGPRDYNPISSSICHLTNESDGHTTSLYGIGFGPFIITNKHLFRRNNGTLVVQSLHGVFKVKDTTTLQQHLVDGRDMIIIRMPKDFPPFPQKLKFREPQREERICLVTTNFQTKSMSSMVSDTSCTFPSGDGIFWKHWIQTKDGQCGSPLVSTRDGFIVGIHSASNFTNTNNYFTSVPKNFMELLTNQEAQQWVSGWRLNADSVLWGGHKVFMVKPEEPFQPVKEATQL

Variants of: B1
Assay: raw area under fraction-flipped curve 0-4 h after induction (AUC4h, not background-subtracted), DNA-recorder readout of cleavage of the substrate (dimensionless); higher = more cleavage of the substrate by the protease variant
Settings: temperature: 34 °C; time window: 0-4 h after rhamnose induction
Method: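 In vivo DNA recorder in E. coli TOP10(DE3) ΔrhaA at 34 °C. Each TEVp single-site mutant (parent TEVp 0) is paired with a single-site variant of the 7-mer TEVs (canonical ENLYFQ|S). The substrate sits between flexible linkers in a Bxb1-sfGFP-TEVs-SsrA fusion, so cleavage stabilises Bxb1 and speeds flipping of a recombination array, read by NGS. The value is the raw area under the fraction-flipped curve over 0-4 h after rhamnose induction (AUC4h), with ≥20 reads per time point. It is not background-subtracted; inactive controls average about 0.047.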
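Further: Bxb1 expression induced with 0.2% (w/v) L-rhamnose at OD600 near 0.5, cultures sampled hourly, flipped fraction per protease–substrate barcode pair counted by paired-end Illumina sequencing.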

Variant | area with substrate ENLYAQS | area with substrate ENLYDQS | area with substrate ENLYVQS | area with substrate ENLYWQS | area with substrate ENLYCQS | area with substrate ENLYPQS | area with substrate ENLYSQS | area with substrate ENLYTQS | area with substrate ENLYKQS | area with substrate ENLYGQS
MGESLFKGPRDYNPISSSICHLTNESDGHTTSLYGIGFGPFIITNKHLFRRNNGTLVVQSLHGVFKVKDTTTLQQHLVDGRDMIIIRMPKDFPPFPQKLKFREPQREERICLVTTNFQTKSMSSMVSDTSCTFPSGDGIFWKHWIQTKDGQCGSPLVSTRDGFIVGIHKASNFTNTNNYFTSVPKNFMELLTNQEAQQWVSGWRLNADSVLWGGHKVFMVKPEEPFQPVKEATQL [S169K] | 0.0659 | 0.0606 | 0.0564 | 0.0146 |  |  |  |  |  | 
MGESLFKGPRDYNPISSSICHLTNESDGHTTSLYGIGFGPFIITNKHLFRRNNGTLVVQSLHGVFKVKDTTTLQQHLVDGRDMIIIRMPKDFPPFPQKLKFREPQREERICLVTTNFQTKSMSSMVSDTSCTFPSGDGIFWKHWIQTKDGQCGSPLVSTRDGFIVGIHSISNFTNTNNYFTSVPKNFMELLTNQEAQQWVSGWRLNADSVLWGGHKVFMVKPEEPFQPVKEATQL [A170I] | 0.123 | 0.0304 |  |  | 0.0466 | 0.0726 | 0.0969 | 0.0556 |  | 
MGESLFKGPRDYNPISSSICHLTNESDGHTTSLYGIGFGPFIITNKHLFRRNNGTLVVQSLHGVFKVKDTTTLQQHLVDGRDMIIIRMPKDFPPFPQKLKFREPQREERICLVTTNFQTKSMSSMVSDTSWTFPSGDGIFWKHWIQTKDGQCGSPLVSTRDGFIVGIHSASNFTNTNNYFTSVPKNFMELLTNQEAQQWVSGWRLNADSVLWGGHKVFMVKPEEPFQPVKEATQL [C131W] | 0.0645 | 0.0665 |  | 0.0515 |  | 0.0809 |  |  | 0.0531 | 
MGESLFKGPRDYNPISSSICHLTNESDGHTTSLYGIGFGPFIITNKHLFRRNNGTLVVQSLHGVFKVKDTTTLQQHLVDGRDMIIIRMPKDFPPFPQKLKFREPQREERICLVTTNFQTKSMSSMVSDTSCTFPSGDPIFWKHWIQTKDGQCGSPLVSTRDGFIVGIHSASNFTNTNNYFTSVPKNFMELLTNQEAQQWVSGWRLNADSVLWGGHKVFMVKPEEPFQPVKEATQL [G138P] | 0.072 | 0.0537 |  | 0.0664 |  | 0.0805 |  |  | 0.0485 | 0.0568
MGESLFKGPRDYNPISSSICHLTNESDGHTTSLYGIGFGPFIITNKHLFRRNNGTLVVQSLHGVFKVKDTTTLQQHLVDGRDMIIIRMPKDFPPFPQKLKFREPQREERICLVTTNFQTKSMSSMVSDTSCTFPSGDTIFWKHWIQTKDGQCGSPLVSTRDGFIVGIHSASNFTNTNNYFTSVPKNFMELLTNQEAQQWVSGWRLNADSVLWGGHKVFMVKPEEPFQPVKEATQL [G138T] | 0.121 |  |  |  |  |  |  |  | 0.0233 | 
MGESLFKGPRDYNPISSSICHLTNESDGHTTSLYGIGFGPFIITNKHLFRRNNGTLVVQSLHGVFKVKDTTTLQQHLVDGRDMIIIRMPKDFPPFPQKLKFREPQREERICLVTTNFQTKSMSSMVSDTSCTFPSGDYIFWKHWIQTKDGQCGSPLVSTRDGFIVGIHSASNFTNTNNYFTSVPKNFMELLTNQEAQQWVSGWRLNADSVLWGGHKVFMVKPEEPFQPVKEATQL [G138Y] | 0.0697 |  | 0.0784 |  |  | 0.0707 | 0.0649 |  | 0.0636 | 0.0483
MGESLFKGPRDYNPISSSICHLTNESDGHTTSLYGIGFGPFIITNKHLFRRNNGTLVVQSLHGVFKVKDTTTLQQHLVDGRDMIIIRMPKDFPPFPQKLKFREPQREERICLVTTNFQTKSMSSMVSDTSCTFPSGDGIFWKHWIQTKDGQCMSPLVSTRDGFIVGIHSASNFTNTNNYFTSVPKNFMELLTNQEAQQWVSGWRLNADSVLWGGHKVFMVKPEEPFQPVKEATQL [G153M] | 0.0331 |  |  | 0.0565 |  | 0.0393 |  |  |  | 
MGESLFKGPRDYNPISSSICHLTNESDGHTTSLYGIGFGPFIITNKHLFRRNNGTLVVQSLHGVFKVKDTTTLQQHLVDGRDMIIIRMPKDFPPFPQKLKFREPQREERICLVTTNFQTKSMSSMVSDTSCTFPSGDGIFWKHWIQTKDGQCISPLVSTRDGFIVGIHSASNFTNTNNYFTSVPKNFMELLTNQEAQQWVSGWRLNADSVLWGGHKVFMVKPEEPFQPVKEATQL [G153I] | 0.0189 |  |  | 0.0628 |  | 0.0452 |  |  | 0.0453 | 
MGESLFKGPRDYNPISSSICHLTNESDGHTTSLYGIGFGPFIITNKHLFRRNNGTLVVQSLHGVFKVKDTTTLQQHLVDGRDMIIIRMPKDFPPFPQKLKFREPQREERICLVTTNFQTKSMSSMVSDTSCTFPSGDGIFWKHWIQTKDGQCGSPLVSTRDGFIVEIHSASNFTNTNNYFTSVPKNFMELLTNQEAQQWVSGWRLNADSVLWGGHKVFMVKPEEPFQPVKEATQL [G166E] | 0.064 | 0.0552 |  |  | 0.0597 |  |  | 0.0622 | 0.0178 | 
MGESLFKGPRDYNPISSSICHLTNESDGHTTSLYGIGFGPFIITNKHLFRRNNGTLVVQSLHGVFKVKDTTTLQQHLVDGRDMIIIRMPKDFPPFPQKLKFREPQREERICLVTTNFQTKSMSSMVSDTSCTFPSGDGIFWKHWIQTKDGQCGSPLVSTRDGFIVGIHSAYNFTNTNNYFTSVPKNFMELLTNQEAQQWVSGWRLNADSVLWGGHKVFMVKPEEPFQPVKEATQL [S171Y] | 0.071 | 0.0685 | 0.0661 |  |  |  | 0.0555 | 0.0593 | 0.0653 | 0.0578
MGESLFKGPRDYNPISSSICHLTNESDGHTTSLYGIGFGPFIITNKHLFRRNNGTLVVQSLHGVFKVKDTTTLQQHLVDGRDMIIIRMPKDFPPFPQKLKFREPQREERICLVTTNFQTKSMSSMVSDTSCTFPSGDGIFWKHWIQTKDGQCGSPLVSTRDGFIVGIHSASRFTNTNNYFTSVPKNFMELLTNQEAQQWVSGWRLNADSVLWGGHKVFMVKPEEPFQPVKEATQL [N172R] | 0.0507 | 0.0601 |  |  |  | 0.0636 |  |  |  | 0.0649

Same assay, conditions: temperature: 34 °C; time window: 0-4 h after rhamnose induction

Variant | area with substrate ENLYHQS | area with substrate ENLYNQS | area with substrate ENLYQQS | area with substrate ENLYEQS | area with substrate ENLYLQS | area with substrate ENLYMQS | area with substrate ENLYIQS | area with substrate ENLYRQS | area with substrate ENLYYQS
MGESLFKGPRDYNPISSSICHLTNESDGHTTSLYGIGFGPFIITNKHLFRRNNGTLVVQSLHGVFKVKDTTTLQQHLVDGRDMIIIRMPKDFPPFPQKLKFREPQREERICLVTTNFQTKSMSSMVSDTSCTFPSGDPIFWKHWIQTKDGQCGSPLVSTRDGFIVGIHSASNFTNTNNYFTSVPKNFMELLTNQEAQQWVSGWRLNADSVLWGGHKVFMVKPEEPFQPVKEATQL [G138P] | 0.0221 | 0.0568 | 0.0599 |  |  |  |  |  | 
MGESLFKGPRDYNPISSSICHLTNESDGHTTSLYGIGFGPFIITNKHLFRRNNGTLVVQSLHGVFKVKDTTTLQQHLVDGRDMIIIRMPKDFPPFPQKLKFREPQREERICLVTTNFQTKSMSSMVSDTSCTFPSGDTIFWKHWIQTKDGQCGSPLVSTRDGFIVGIHSASNFTNTNNYFTSVPKNFMELLTNQEAQQWVSGWRLNADSVLWGGHKVFMVKPEEPFQPVKEATQL [G138T] | 0.0394 |  |  | 0.068 |  |  |  |  | 
MGESLFKGPRDYNPISSSICHLTNESDGHTTSLYGIGFGPFIITNKHLFRRNNGTLVVQSLHGVFKVKDTTTLQQHLVDGRDMIIIRMPKDFPPFPQKLKFREPQREERICLVTTNFQTKSMSSMVSDTSCTFPSGDYIFWKHWIQTKDGQCGSPLVSTRDGFIVGIHSASNFTNTNNYFTSVPKNFMELLTNQEAQQWVSGWRLNADSVLWGGHKVFMVKPEEPFQPVKEATQL [G138Y] | 0.0556 | 0.0689 |  | 0.0598 | 0.0736 | 0.0291 |  |  | 
MGESLFKGPRDYNPISSSICHLTNESDGHTTSLYGIGFGPFIITNKHLFRRNNGTLVVQSLHGVFKVKDTTTLQQHLVDGRDMIIIRMPKDFPPFPQKLKFREPQREERICLVTTNFQTKSMSSMVSDTSCTFPSGDGIFWKHWIQTKDGQCMSPLVSTRDGFIVGIHSASNFTNTNNYFTSVPKNFMELLTNQEAQQWVSGWRLNADSVLWGGHKVFMVKPEEPFQPVKEATQL [G153M] | 0.0466 |  | 0.059 | 0.057 |  | 0.0542 | 0.0389 |  | 
MGESLFKGPRDYNPISSSICHLTNESDGHTTSLYGIGFGPFIITNKHLFRRNNGTLVVQSLHGVFKVKDTTTLQQHLVDGRDMIIIRMPKDFPPFPQKLKFREPQREERICLVTTNFQTKSMSSMVSDTSCTFPSGDGIFWKHWIQTKDGQCISPLVSTRDGFIVGIHSASNFTNTNNYFTSVPKNFMELLTNQEAQQWVSGWRLNADSVLWGGHKVFMVKPEEPFQPVKEATQL [G153I] |  |  | 0.0564 |  |  |  |  | 0.0537 | 
MGESLFKGPRDYNPISSSICHLTNESDGHTTSLYGIGFGPFIITNKHLFRRNNGTLVVQSLHGVFKVKDTTTLQQHLVDGRDMIIIRMPKDFPPFPQKLKFREPQREERICLVTTNFQTKSMSSMVSDTSCTFPSGDGIFWKHWIQTKDGQCGSPLVSTRDGFIVEIHSASNFTNTNNYFTSVPKNFMELLTNQEAQQWVSGWRLNADSVLWGGHKVFMVKPEEPFQPVKEATQL [G166E] | 0.0485 | 0.0485 | 0.0458 |  |  |  |  |  | 0.0515
MGESLFKGPRDYNPISSSICHLTNESDGHTTSLYGIGFGPFIITNKHLFRRNNGTLVVQSLHGVFKVKDTTTLQQHLVDGRDMIIIRMPKDFPPFPQKLKFREPQREERICLVTTNFQTKSMSSMVSDTSCTFPSGDGIFWKHWIQTKDGQCGSPLVSTRDGFIVGIHSAYNFTNTNNYFTSVPKNFMELLTNQEAQQWVSGWRLNADSVLWGGHKVFMVKPEEPFQPVKEATQL [S171Y] | 0.0436 | 0.0618 | 0.0505 | 0.0572 |  | 0.0662 |  | 0.0762 | 0.0365
MGESLFKGPRDYNPISSSICHLTNESDGHTTSLYGIGFGPFIITNKHLFRRNNGTLVVQSLHGVFKVKDTTTLQQHLVDGRDMIIIRMPKDFPPFPQKLKFREPQREERICLVTTNFQTKSMSSMVSDTSCTFPSGDGIFWKHWIQTKDGQCGSPLVSTRDGFIVGIHSASRFTNTNNYFTSVPKNFMELLTNQEAQQWVSGWRLNADSVLWGGHKVFMVKPEEPFQPVKEATQL [N172R] |  |  | 0.0655 | 0.0556 | 0.0484 |  |  | 0.0535 | 0.0753
